Data: patent publication US7592316B2, “Peptides as NS3-serine protease inhibitors of hepatitis C virus” (Schering Corporation, priority 2000, dated 2009)

Target: HCV NS3/NS4A protease (strain 1a) (Hepatitis C virus genotype 1a, UniProt P27958)
Experiment: biochemical
Details: HCV protease continuous assay results, Table 1; read-out: Ki* Range

| SMILES | Ki [nM] |
| --- | --- |
| CCCC(NC(=O)[C@@H]1C[C@@H](O)CN1C(=O)[C@@H](NC(=O)OCC(C)C)C1CCCCC1)C(=O)C(=O)NCC(=O)N[C@H](C(=O)O)c1ccccc1 (some centres unmarked) [Example 206] (Isobutyloxycarbonyl-[Chg][Hyp][X2]G[Phg]-OH) | 101 to 1000 |
| CCCC(NC(=O)[C@@H]1C[C@@H](O)CN1C(=O)[C@@H](NC(=O)OCC(C)C)C1CCCCC1)C(=O)C(=O)NCC(=O)N[C@H](C(=O)N(C)C)c1ccccc1 (some centres unmarked) [Example 207] (Isobutyloxycarbonyl-[Chg][Hyp][X2]G[Phg]-NMe2) | 101 to 1000 |
| CCCC(NC(=O)[C@@H]1CC2(CN1C(=O)[C@@H](NC(=O)[C@@H](OC(C)=O)c1ccccc1)C(C)(C)C)SCCCS2)C(=O)C(=O)NCC(=O)NC(C(=O)N(C)C)c1ccccc1 (some centres unmarked) [Example 208] (X5-[Tle][Pro(4,4-S(CH2)3S)][X2]G[ξPhg]-NMe2) | 1 to 100 |
| CCCC(NC(=O)[C@@H]1CC2(CN1C(=O)[C@@H](NC(=O)[C@@H](O)c1ccccc1)C(C)(C)C)SCCCS2)C(=O)C(=O)NCC(=O)NC(C(=O)N(C)C)c1ccccc1 (some centres unmarked) [Example 210] (X3-[Tle][Pro(4,4-S(CH2)3S)][X2]G[ξPhg]-NMe2) | 1 to 100 |
| CCCC(NC(=O)C1CC2(CN1C(=O)C(C1CCCCC1)N(C)C(=O)Cc1ccccc1)SCCCS2)C(=O)C(=O)NCC(=O)NC(C(=O)N(C)C)c1ccccc1 (centres unmarked) [Example 215] (PhAc-[NMeChg][ξPro(4,4-S(CH2)3S)][X2]G[Phg]-NMe2; configuration not given here) | 101 to 1000 |
| CCCC(NC(=O)[C@@H]1CC2(CN1C(=O)C(NC(=O)OC(C)(C)C)C(C)(C)C)SCCCS2)C(=O)C(=O)NCC(=O)O (some centres unmarked) [Example 217] | > 1000 |
| C=CCC(NC(=O)[C@@H]1C[C@@H](OC(C)(C)C)CN1C(=O)[C@@H](NC(=O)OCC(C)C)C(C)(C)C)C(=O)C(=O)NCC(=O)N[C@H](C(=O)N(C)C)c1ccccc1 (some centres unmarked) [Example 218] (Isobutyloxycarbonyl-[Tle][Hyp](tBu)[ξ(3-Amino-2-oxohex-5-enoyl)]G[Phg]-NMe2) | 1 to 100 |
| CCCC(NC(=O)[C@@H]1C[C@@H](OC(C)(C)C)CN1C(=O)[C@@H](NC(=O)OCC(C)C)C(C)(C)C)C(=O)C(=O)NCC(=O)N[C@H](C(=O)N(C)C)c1ccccc1 (some centres unmarked) [Example 219] (Isobutyloxycarbonyl-[Tle][Hyp](tBu)[X2]G[Phg]-NMe2) | 1 to 100 |
| CCCC(NC(=O)[C@@H]1CC2(CN1C(=O)C(NC(=O)OC(C)(C)C)C(C)(C)C)SCCCS2)C(=O)C(=O)NCC(=O)NC(CO)c1ccccc1 (some centres unmarked) [Example 220] | 1 to 100 |
| CSCCC(NC(=O)[C@@H]1CC2(CN1C(=O)[C@@H](NC(=O)OCC(C)C)C(C)(C)C)SCCCS2)C(=O)C(=O)NCC(=O)NC(C(=O)N(C)C)c1ccccc1 (some centres unmarked) [Example 222] (Isobutyloxycarbonyl-[Tle][Pro(4,4-S(CH2)3S)][X90]G[ξPhg]-NMe2) | 1 to 100 |
| CCCC(NC(=O)[C@@H]1CC2(CN1C(=O)C(NC(=O)OC(C)(C)C)C(C)(C)C)SCCCS2)C(=O)C(=O)NCC(=O)NC(COC)c1ccccc1 (some centres unmarked) [Example 223] | 101 to 1000 |
| CC[C@@H](C)C(NC(=O)[C@@H]1C[C@@H](OC(C)(C)C)CN1C(=O)C(NC(=O)OCC(C)C)C(C)(C)C)C(=O)C(=O)NCC(=O)OC (some centres unmarked) [Example 224] | > 1000 |
| CC[C@@H](C)C(NC(=O)[C@@H]1C[C@@H](OC(C)(C)C)CN1C(=O)C(NC(=O)OCC(C)C)C(C)(C)C)C(=O)C(=O)NCC(=O)O (some centres unmarked) [Example 225] | > 1000 |
| CCCCC(NC(=O)[C@@H]1C[C@@H](OC(C)(C)C)CN1C(=O)[C@@H](NC(=O)OCC(C)C)C(C)(C)C)C(=O)C(=O)NCC(=O)N[C@H](C(=O)N(C)C)c1ccccc1 (some centres unmarked) [Example 226] (Isobutyloxycarbonyl-[Tle][Hyp](tBu)[X4]G[Phg]-NMe2) | 1 to 100 |
| C=C1C[C@@H](C(=O)NC(CCC)C(=O)C(=O)NCC(=O)N[C@H](C(=O)N(C)C)c2ccccc2)N(C(=O)[C@@H](NC(=O)OCC(C)C)C(C)(C)C)C1 (some centres unmarked) [Example 227] (Isobutyloxycarbonyl-[Tle][Pro(4-methylene)][X2]G[Phg]-NMe2) | 1 to 100 |
| CCCC(NC(=O)[C@@H]1CC2(CN1C(=O)[C@@H](NC(=O)Cc1ccccc1)C(C)(C)C)SCCCS2)C(=O)C(=O)NCC(=O)NC(C(=O)N(C)C)c1ccccc1 (some centres unmarked) [Example 230] (PhAc-[Tle][Pro(4,4-S(CH2)3S)][X2]G[ξPhg]-NMe2) | 1 to 100 |
| COC(=O)CNC(=O)C(=O)C1(NC(=O)[C@@H]2C[C@@H](OC(C)(C)C)CN2C(=O)[C@@H](NC(=O)OCC(C)C)C(C)(C)C)CCCCC1 [Example 232] | > 1000 |
| CC(C)COC(=O)N[C@H](C(=O)N1C[C@H](OC(C)(C)C)C[C@H]1C(=O)NC1(C(=O)C(=O)NCC(=O)O)CCCCC1)C(C)(C)C [Example 233] | > 1000 |
| CC(C)COC(=O)N[C@H](C(=O)N1C[C@H](OC(C)(C)C)C[C@H]1C(=O)NC1(C(=O)C(=O)NCC(=O)N[C@H](C(=O)N(C)C)c2ccccc2)CCCCC1)C(C)(C)C [Example 234] (Isobutyloxycarbonyl-[Tle][Hyp](tBu)[X104]G[Phg]-NMe2) | > 1000 |
| CC[C@H](C)C(NC(=O)[C@@H]1C[C@@H](OC(C)(C)C)CN1C(=O)C(NC(=O)OCC(C)C)C(C)(C)C)C(=O)C(=O)NCC(=O)OC (some centres unmarked) [Example 235] | > 1000 |
| CCCCC(NC(=O)[C@@H]1CC(F)(F)CN1C(=O)[C@@H](NC(=O)OC(C)(C)C)C(C)(C)C)C(=O)C(=O)NCC(=O)N[C@H](C(=O)N(C)C)c1ccccc1 (some centres unmarked) [Example 236] (Boc-[Tle][Pro(4,4-F2)][X4]G[Phg]-NMe2) | 101 to 1000 |

| SMILES | Ki [nM] |
| --- | --- |
| CC[C@H](C)C(NC(=O)[C@@H]1C[C@@H](OC(C)(C)C)CN1C(=O)C(NC(=O)OCC(C)C)C(C)(C)C)C(=O)C(=O)NCC(=O)O (some centres unmarked) [Example 237] | > 1000 |
| CSCC(NC(=O)[C@@H]1CC2(CN1C(=O)[C@@H](NC(=O)OC(C)(C)C)C(C)(C)C)SCCCS2)C(=O)C(=O)NCC(=O)NC(C(=O)N(C)C)c1ccccc1 (some centres unmarked) [Example 238] (Boc-[Tle][Pro(4,4-S(CH2)3S)][X46]G[ξPhg]-NMe2) | 1 to 100 |
| CCCC(NC(=O)[C@@H]1CC2(CN1C(=O)C(NC(=O)OCC(C)C)C1CCC(F)(F)CC1)SCCCS2)C(=O)C(=O)NCC(=O)NC(C(=O)N(C)C)c1ccccc1 (some centres unmarked) [Example 240] | 1 to 100 |
| CCCC(NC(=O)[C@@H]1C[C@@H](OCCOc2ccccc2)CN1C(=O)OCc1ccccc1)C(=O)C(=O)NCC(=O)NC(C(=O)N(C)C)c1ccccc1 (some centres unmarked) [Example 241] | > 1000 |
| CCCC(NC(=O)[C@@H]1CC2(CN1C(=O)C(NC(=O)OC(C)(C)C)C(C)(C)C)SCCCS2)C(=O)C(=O)NCC(=O)NC(CO)CC1CCCCC1 (some centres unmarked) [Example 242] | 101 to 1000 |
| CCCC(NC(=O)[C@@H]1CC2(CN1C(=O)C(NC(=O)OC(C)(C)C)C(C)(C)C)SCCCS2)C(=O)C(=O)NCC(=O)NC(CO)C(C)C (some centres unmarked) [Example 243] | > 1000 |
| CCCC(NC(=O)[C@@H]1CC2(CN1C(=O)C(NC(=O)OC(C)(C)C)C(C)(C)C)SCCCS2)C(=O)C(=O)NCC(=O)NC(CO)CCSC (some centres unmarked) [Example 244] | 101 to 1000 |
| CCCC(NC(=O)[C@@H]1CC2(CN1C(=O)C(NC(=O)OC(C)(C)C)C(C)(C)C)SCCCS2)C(=O)C(=O)NCC(=O)NC(CO)C(C)(C)C (some centres unmarked) [Example 245] | > 1000 |
| CCCC(NC(=O)[C@@H]1CC2(CN1C(=O)C(NC(=O)OC(C)(C)C)C(C)(C)C)SCCCS2)C(=O)C(=O)NCC(=O)NC(CO)CC(C)C (some centres unmarked) [Example 246] (Boc-[ξTle][Pro(4,4-S(CH2)3S)][X2]G[ξLeu(ol)]) | 101 to 1000 |
| CCCC(NC(=O)[C@@H]1CC2(CN1C(=O)C(NC(=O)OC(C)(C)C)C(C)(C)C)SCCCS2)C(=O)C(=O)NCC(=O)NC(CO)c1cccs1 (some centres unmarked) [Example 247] | 1 to 100 |
| CCCC(NC(=O)[C@@H]1CC2(CN1C(=O)C(NC(=O)Cc1ccccc1)C1CCCCC1)SCCCS2)C(=O)C(=O)NCC(=O)NC(C(=O)N(C)C)c1ccccc1 (some centres unmarked) [Example 248] (PhAc-[ξChg][Pro(4,4-S(CH2)3S)][X2]G[ξPhg]-NMe2) | 1 to 100 |
| COC(=O)CNC(=O)C(=O)C(CCC(C)C)NC(=O)[C@@H]1C[C@@H](OC(C)(C)C)CN1C(=O)C(NC(=O)OCC(C)C)C(C)(C)C (some centres unmarked) [Example 249] | > 1000 |
| CC(C)CCC(NC(=O)[C@@H]1C[C@@H](OC(C)(C)C)CN1C(=O)[C@@H](NC(=O)OCC(C)C)C(C)(C)C)C(=O)C(=O)NCC(=O)O (some centres unmarked) [Example 250] | > 1000 |
| CCCC(NC(=O)[C@@H]1CC2(CC2)CN1C(=O)[C@@H](NC(=O)OCC(C)C)C(C)(C)C)C(=O)C(=O)NCC(=O)N[C@H](C(=O)N(C)C)c1ccccc1 (some centres unmarked) [Example 251] (Isobutyloxycarbonyl-[Tle][Pro(4-spirocPr)][X2]G[Phg]-NMe2) | 101 to 1000 |
| CCCC(NC(=O)[C@@H]1C[C@@H](OC(C)(C)C)CN1C(=O)[C@@H](NC(=O)OCC(C)C)C(C)(C)C)C(=O)C(=O)NCC(=O)OCc1ccccc1 (some centres unmarked) [Example 252] | > 1000 |
| CCCC(NC(=O)[C@@H]1C[C@@H](OC(C)(C)C)CN1C(=O)[C@@H](NC(=O)OCC(C)C)C(C)(C)C)C(=O)C(=O)NCC(=O)O (some centres unmarked) [Example 253] | > 1000 |
| CCCC(NC(=O)[C@@H]1CC2(CN1C(=O)C(NC(=O)OC(C)(C)C)C(C)(C)C)SCCCS2)C(=O)C(=O)NCC(=O)NC(CO)c1ccccc1 (some centres unmarked) [Example 254] | 101 to 1000 |
| CC(C)CCC(NC(=O)[C@@H]1C[C@@H](OC(C)(C)C)CN1C(=O)[C@@H](NC(=O)OCC(C)C)C(C)(C)C)C(=O)C(=O)NCC(=O)N[C@H](C(=O)N(C)C)c1ccccc1 (some centres unmarked) [Example 255] (Isobutyloxycarbonyl-[Tle][Hyp](tBu)[X99]G[Phg]-NMe2) | 101 to 1000 |
| CCCC(NC(=O)[C@@H]1CC(OCCOc2ccccc2)CN1C(=O)C(NC(C)=O)C1CCCCC1)C(=O)C(=O)NCC(=O)NC(C(=O)N(C)C)c1ccccc1 (some centres unmarked) [Example 256] | 1 to 100 |
| CCCCCC(NC(=O)[C@@H]1C[C@@H](OC(C)(C)C)CN1C(=O)C(NC(=O)OCC(C)C)C(C)(C)C)C(=O)C(=O)NCC(=O)OC (some centres unmarked) [Example 257] | > 1000 |

*1 amine or outer side, *2 acyl side, *3 side chain or, on linkers, in order; H or OH if unused. Where a SMILES comes first, the peptide text is derived from it. [ ]: non-standard residue; d: D form. The star is where a group is joined. ξ: configuration not given here. ξ(3-Amino-2-oxohex-5-enoyl) = C=CCC(N[*:1])C(=O)C(=O)[*:2]; Pro(4,4-S(CH2)3S) = O=C(O)[C@@H]1CC2(CN1)SCCCS2; ξPro(4,4-S(CH2)3S) = O=C(O)C1CC2(CN1)SCCCS2; Pro(4-spirocPr) = O=C(O)[C@@H]1CC2(CC2)CN1; Pro(4-methylene) = C=C1CN[C@H](C(=O)O)C1; Pro(4,4-F2) = O=C(O)[C@@H]1CC(F)(F)CN1; X104 = O=C(C(=O)[*:2])C1(N[*:1])CCCCC1; X99 = CC(C)CCC(N[*:1])C(=O)C(=O)[*:2]; Isobutyloxycarbonyl = CC(C)COC(=O)*; X90 = CSCCC(N[*:1])C(=O)C(=O)[*:2]; X4 = CCCCC(N[*:1])C(=O)C(=O)[*:2]; X46 = CSCC(N[*:1])C(=O)C(=O)[*:2]; X5 = CC(=O)O[C@H](C(=O)*)c1ccccc1; Hyp = O=C(O)[C@@H]1C[C@@H](O)CN1; X2 = CCCC(N[*:1])C(=O)C(=O)[*:2]; NMeChg = CN[CH](C(=O)O)C1CCCCC1; Chg = N[C@H](C(=O)O)C1CCCCC1; Phg = N[CH](C(=O)O)c1ccccc1; Tle = CC(C)(C)[C@H](N)C(=O)O; X3 = O=C([C@@H](O)c1ccccc1)*; ξChg = NC(C(=O)O)C1CCCCC1; ξPhg = NC(C(=O)O)c1ccccc1; ξTle = CC(C)(C)C(N)C(=O)O; ξLeu(ol) = CC(C)CC(N)CO; PhAc = O=C(Cc1ccccc1)*; Boc = CC(C)(C)OC(=O)*; tBu = CC(C)(C)*
